Laboratory results taken from US20230322887A1 (SHANGHAI MINWEI BIOTECHNOLOGY, published 2023).
Positions count from the first letter of the chain named.

B1: Fc fusion protein 1 (Fc fusion)
chain: HSQGTFTSDYSKYLDEQAAKEFIAWLIAGGPSSGAPPPSGGGGGSGGGGSGGGGSA[human IgG4 Fc with S228P F234A L235A (EU numbers) omitted]
B2: Fc fusion protein 2 (Fc fusion)
chain: B1 chain with A18R, E21D
B3: Fc fusion protein 3 (Fc fusion)
chain: B1 chain with A18R, I23V

target: human glucagon receptor (human, UniProt P47871); test: cell-based or functional assay

Compared with B1, B2 is 1.8-fold higher in “EC50 human glucagon-R (CRE-luciferase reporter cells)” value: 0.32 nM for the first, 0.59 nM for the second.

For B3, the “EC50 human glucagon-R (CRE-luciferase reporter cells)” value was 0.63 nM.

target: human GLP-1 receptor (human, UniProt P43220); test: cell-based or functional assay

First: B1
Second: B2
The “EC50 human GLP-1R (CRE-luciferase reporter cells)” value of the first is 2.2-fold lower: 0.57 nM for the first, 1.23 nM for the second.

B3 was tested, and the “EC50 human GLP-1R (CRE-luciferase reporter cells)” value was 3.49 nM.
